Experimental data taken from PMC12136788.
The list shows a part of the results.

B1: chr1:173734013:173734119:+|CDS|ENSG00000076321|unk|FALSE|unique (ssRNA)
RNA: GGGAGUUCUACAGUCCGACGAUCCAUUGACGAGAGGGCUAUGGAAUUACUGAUUGACUUUGCGUAUACCUCCCAGAUAACAGUAGAAGAGGGCAAUGUUCAGACUCUUCUGCCAGCUGCUUGCCUCCUCCAGCUGGCAGAAAUCAACAGAGGAUUGAGCAUCA
B2: chr1:152033651:152033752:-|CDS|ENSG00000163191|unk|FALSE|unique (ssRNA)
RNA: GGGAGUUCUACAGUCCGACGAUCGGAUGGUUAUAACUACACUCUCUCCAAGACAGAGUUCCUAAGCUUCAUGAAUACAGAACUAGCUGCCUUCACAAAGGUACUGGUCCCUGUCUCCCCCACUUCCCCAAACUACCCACAACACAACAGAGGAUUGAGCAUCA
B3: chr6:75950561:75951094:-|CDS|ENSG00000112706|control|control|control (ssRNA)
RNA: GGGAGUUCUACAGUCCGACGAUCAGCUUUACAGUAUAUCACCACUAGUUCUAUGACCAUUGCCCCCAAGGGCCGAGAGCUGGUAGUGUUCUUCAGUCUGCGUGUUGCUAACAUGGCCUUCUCCAACGACCUGUUCAACAAGAGCAACAGAGGAUUGAGCAUCA
B4: chr21:32314052:32314153:-|3pUTR|ENSG00000142207|msi1|total|mutant (ssRNA)
RNA: GGGAGUUCUACAGUCCGACGAUCCAUCUCAAAAAAAUAAAAAAAUAAAGUUUGUUUUUCUAUAAAAAGUCAUAACAAAGUAUCCGUAUGACUUUUUGAAUAAGUUAAUUUCUGCCAGUGUUUAAUUAUUUUAUUAAAGAAAAGCAACAGAGGAUUGAGCAUCA
B5: chr15:52550718:52550819:-|3pUTR|ENSG00000128989|msi1|total|mutant (ssRNA)
RNA: GGGAGUUCUACAGUCCGACGAUCUUUAUAUAAACUUUUUAAAUGCCGAAACUUUUUACUUCCACACUCAGUUUUGGAGACCCCCGAAUAAAAGGCUUCAAUACUCUGCAUUCCAUGCCCUCUGCCACCUGCUUUUUUUUCCCCCAACAGAGGAUUGAGCAUCA
B6: chr7:6162096:6162197:-|3pUTR|ENSG00000008256|msi1|FALSE|unique (ssRNA)
RNA: GGGAGUUCUACAGUCCGACGAUCGUCACAGAACAUUUUGGGGCAGUUUAAUGUGGUACCAAACUGAAAAUAGGAGCUAUUUAUAGAUGGAGCAGCACUUAGUGCUUCAUAGAAAGCAAUGCCUAUUUUUAAAGUUACAAACGCCAACAGAGGAUUGAGCAUCA
B7: ENSG00000213799:stop:overlap|stop_codon|ENSG00000213799|stop_codon|NA|stop_codon (ssRNA)
RNA: GGGAGUUCUACAGUCCGACGAUCUUUUUAAUCGAAAAGCAAAACUUGCACGUCAUCAUAGAAUUCAUACUGGAAAGAAACAUUAGAAAUAUGAAGAAUGUGACAAAGUUUACAGUUGUAAAUCAAGUCUUGAAAGACAGGAGACAACAGAGGAUUGAGCAUCA
B8: chrX:141908562:141908663:+|CDS|ENSG00000155495|unk|total|mutant (ssRNA)
RNA: GGGAGUUCUACAGUCCGACGAUCUCCUCGUUACGAAUUCCUGUGGGGUCCAAGAGCUCAUUCAGAAGUCAUUAAGAGGAAAGCCGCCGAGUUUUUGGCCAUGCUAAAGAAUACCGUCCCUAUUACCUUUCCAUCCUCUUACAACAACAGAGGAUUGAGCAUCA
B9: chr16:70160055:70160156:+|3pUTR|ENSG00000090857|msi1|FALSE|unique (ssRNA)
RNA: GGGAGUUCUACAGUCCGACGAUCUUGUGCUCACCACGAAGGAUGGUCUCUGCCUUCUCUUGUCGGUGUAUGCCAUCUGAACCUAGGAACACAAAGUAUAUUGGCCUCAAACGGAGACCCAGGGUUGCCAGUUUUCCGUGGGCCCAACAGAGGAUUGAGCAUCA
B10: ENSG00000158859:stop:overlap|stop_codon|ENSG00000158859|stop_codon|NA|stop_codon (ssRNA)
RNA: GGGAGUUCUACAGUCCGACGAUCUGAGGCCCCAGUCAGCACCGCAGGCCAUGCACUGCACAAUUCUAAGAAGCGCCACUACAUAGACUAUGAUGCAAAUGAUGUUCCUGGAGUUGUGUGACAUGGUGCCUUGCCCCAGCCACACAACAGAGGAUUGAGCAUCA
B11: chr1:18907414:18907603:-|3pUTR|ENSG00000169991|msi1|FALSE|unique (ssRNA)
RNA: GGGAGUUCUACAGUCCGACGAUCCCUUGAUUUCCCUGAUAACUUGAUGUUCUUCCCUCCCUCGCCAGCCAACAAUAGAGGCUUAGAGAUCUGUAAUUUCUCUGUGAGAAAGUCUGAAGGGGCCAGGCCUGGUCUCUGCUCCCUCAACAGAGGAUUGAGCAUCA
B12: ENSG00000070961:be:win_751|CDS|ENSG00000070961|bound_else_gene|NA|bound_elsewhere_windowed (ssRNA)
RNA: GGGAGUUCUACAGUCCGACGAUCAAAAAGUCUUUAGAUAAGGAUCCCUUACUUCUAUCAGGUACUCAUGUAAUGGAAGGCUCUGGAAGAAUGGUAGUUACAGCUGUAGGUGUAAAUUCUCAAACUGGAAUUAUCUUUACCUUACAACAGAGGAUUGAGCAUCA
B13: chr1:54216159:54216271:+|CDS|ENSG00000116221|unk|FALSE|unique (ssRNA)
RNA: GGGAGUUCUACAGUCCGACGAUCCUUGGAGCAGCCCGUGGUGGUGCAGAGCGUGGGCACGGAUGGACGUGUCUUCCAUUUCCUAGUGUUUCAACUGAAUACCACAGACCUGGACUGUAACGAGGGUGUCAAGAAUUUGGCCUGCAACAGAGGAUUGAGCAUCA
B14: chr7:127373434:127373542:-|CDS|ENSG00000048405|unk|FALSE|unique (ssRNA)
RNA: GGGAGUUCUACAGUCCGACGAUCAAAACAUAGUGAUUCAAAACAUGAUGGCACUUCUAACUCUCCUAGUAAAAAGUAUGAAGUAGCUGACGUCGGUAUUGAAGUAAAAGUCACAAAAAACUUUUCUCUUCACAGAUGCAAUAACAACAGAGGAUUGAGCAUCA
B15: ENSG00000070961:be:win_4451|3pUTR|ENSG00000070961|bound_else_gene|NA|bound_elsewhere_windowed (ssRNA)
RNA: GGGAGUUCUACAGUCCGACGAUCGUUUUGAAGCAACUGUUUAAUUUUUAAAAUUUUUGAAAACUUGCUAAUAACCUUUUGUUCAGAAUUUAGUAGAUUGUUUAAUGCAGGACAUCAACUACAUAAUGAAAGAUGCUUGAAAUGCAACAGAGGAUUGAGCAUCA
B16: ENSG00000151502:stop:overlap|stop_codon|ENSG00000151502|stop_codon|NA|stop_codon (ssRNA)
RNA: GGGAGUUCUACAGUCCGACGAUCCCACCUCCCUGGGUGAGGUGCGGACCCCCAGCCAGCUGUCUGACAACAACUGCAGGCAGUAGGCCCCCAGGGCCGAGAAGAUGCUGGGCACCCACCCAGCACCCCCAUCUACCAACACCACAACAGAGGAUUGAGCAUCA
B17: ENSG00000109332:stop:overlap|stop_codon|ENSG00000109332|stop_codon|NA|stop_codon (ssRNA)
RNA: GGGAGUUCUACAGUCCGACGAUCCAGACAGAGAUAAGUACAAUAGGUUAGCAAGAGAGUGGACAGAGAAAUACGCUAUGUUGUAGGGUACAACAGAAUAUCUCGGGAAUGGACUCAGAAGUAUGCCAUGUGAUGCUACCUUAACAACAGAGGAUUGAGCAUCA
B18: chr1:154944474:154944574:-|3pUTR|ENSG00000163346|msi1_unk|total|mutant (ssRNA)
RNA: GGGAGUUCUACAGUCCGACGAUCUCGAGGCCCAGCACGAGGACUUACCCUGGGGUUUUGUCCGGUUUGGAAGCAGCUGUCCCCCGGGGGUGAAGUCCCCCCCCUUUUUUUUUUUACCCCUGCUUCUCCCACGGCUUCACCUCCCAACAGAGGAUUGAGCAUCA
B19: ENSG00000124766:be:win_1601|3pUTR|ENSG00000124766|bound_else_gene|NA|bound_elsewhere_windowed (ssRNA)
RNA: GGGAGUUCUACAGUCCGACGAUCCGUUUUGGACCCGCGCUCCCAUCCCCCACCUUCCCGGGCCGGGGACCCACUCUGCCCAGCCGGAGGGACGCGGAGGAGGAAGAGGGUAGACAGGGGCGACCUGUGAUUGUUGUUAUUGAUCAACAGAGGAUUGAGCAUCA
B20: ENSG00000115641:stop:overlap|stop_codon|ENSG00000115641|stop_codon|NA|stop_codon (ssRNA)
RNA: GGGAGUUCUACAGUCCGACGAUCCCAUCGGCUGUGACUGCAAGGUACCUGCUGCGGGCCUCUGCGGGUCCCCGGCGCUCCCCUAGGAAACACGGGUUUCUCUGUGGUUUGUGCUGAAGCCCUGAUCCACCACUGAAGUCUGUCCAACAGAGGAUUGAGCAUCA
B21: chr1:151249111:151249212:+|3pUTR|ENSG00000143398|unk|total|mutant (ssRNA)
RNA: GGGAGUUCUACAGUCCGACGAUCGCAGAUUGUUGAAUUCCUGUUCUAUCCCUUCUCUAUCCCACCCUGCCUUGAUAAUAUGUCCGCCCAUACCCCAAAUAACUGUCUAUAUCCGACACCCCCAGCCAGUUUCUGGCUGCCUGUCAACAGAGGAUUGAGCAUCA
B22: chr15:91915990:91916091:+|CDS|ENSG00000176463|msi1|FALSE|unique (ssRNA)
RNA: GGGAGUUCUACAGUCCGACGAUCGUCCUGACCACCCUGGAGCGUAGGUUCAACCUGCAGAGCGCUGACGUGGGUGUGAUCGCUAGCAGCUUCGAGAUCGGGAACCUGGCGCUCAUCCUCUUCGUGAGCUACUUCGGGGCACGCCAACAGAGGAUUGAGCAUCA

Target: T1, UNK ZnF1-6 (called full-length) (human, UniProt Q9C0B0 30-357)
T1 sequence: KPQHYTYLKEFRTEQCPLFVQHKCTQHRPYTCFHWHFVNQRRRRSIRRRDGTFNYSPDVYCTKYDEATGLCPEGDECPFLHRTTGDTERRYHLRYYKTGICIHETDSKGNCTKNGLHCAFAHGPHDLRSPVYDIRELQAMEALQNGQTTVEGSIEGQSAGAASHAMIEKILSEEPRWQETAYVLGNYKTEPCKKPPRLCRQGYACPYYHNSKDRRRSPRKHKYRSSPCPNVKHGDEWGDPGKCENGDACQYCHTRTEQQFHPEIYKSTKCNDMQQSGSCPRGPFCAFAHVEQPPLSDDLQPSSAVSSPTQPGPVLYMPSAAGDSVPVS
Assay: nsRBNS (natural sequence RNA bind-n-seq); RBNS binding buffer (assumed for nsRBNS): 25 mM Tris pH 7.5, 150 mM KCl, 3 mM MgCl2, 0.01% Triton X-100, 500 ug/ml BSA, 20 U/ml SUPERase-In, 4 C; UNK is unkempt and MSI1 is Musashi-1; names of the RNAs are library labels; protein concentration not given here; high values mean tight binding

Row | Binder | binding signal [enrichment R]
1 | B1 | 0.72
2 | B2 | 0.654
3 | B3 | 0.57
4 | B4 | 1.13
5 | B5 | 1.03
6 | B6 | 0.572
7 | B7 | 0.926
8 | B8 | 0.517
9 | B9 | 0.549
10 | B10 | 0.629
11 | B11 | 0.912
12 | B12 | 0.459
13 | B13 | 1.2
14 | B14 | 0.812
15 | B15 | 0.586
16 | B16 | 0.954
17 | B17 | 0.951
18 | B18 | 1.24
19 | B19 | 0.94
20 | B20 | 0.517
21 | B21 | 1.46
22 | B22 | 0.855
